The source of these data is the supplement of paper PMC10037445.

± gives the standard deviation of the averaged measurements. Over roughly 2,900 compounds, “NF-kB SEAP reporter activity, fold change vs agonist alone” has its median near 0.99; the highest 2% begin near 2.6. The list shows a part of the results.

Test [1] relates to RAW-Dual. Briefly: NF-kB SEAP reporter activity, fold change vs agonist alone; cytotoxicity flag (confluency mask): not cytotoxic; higher = enhanced NF-kB activity. The procedure, abridged:
(§1)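 Cytotoxic wells were those whose IncuCyte confluency was below 70% of agonist controls in both mask sets. The cells were RAW-Dual macrophages at 50,000 cells/well in DMEM on 384-well plates, dosed with 50 nL of library stock by pin tool, stimulated with a PRR agonist 1 h later, and kept at 37 °C, 5% CO2 for 20 hours. IRF and NF-κB reporter activity, as fold change over agonist-alone wells, came from supernatant read by QuantiLuc luminescence and QuantiBlue absorbance, respectively.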

For test [2], the system named is RAW-Dual. Briefly: NF-kB SEAP reporter activity, fold change vs agonist alone; higher = enhanced NF-kB activity. In outline:
as §1

Test [3] has as its system RAW-Dual. In words: NF-kB SEAP reporter activity, fold change vs agonist alone; cytotoxicity flag (confluency mask): cytotoxic (confluency <70% of control); higher = enhanced NF-kB activity. The procedure, abridged: as §1
Setting [4] is: agonist: ODN 1826 (TLR9) 0.5 ug/mL.
The mark [5] stands for this setting: agonist: Pam2CSK4 (TLR2/6) 0.1 ug/mL.
Where [6] appears, read: agonist: Pam3CSK4 (TLR2/1) 0.1 ug/mL.
Where [7] appears, read: library stock concentration (final ~1000-fold dilution): 10 mM, cytotoxicity flag (confluency mask): not cytotoxic, agonist: MPLA (TLR4) […].
Setting [8] is: library stock concentration (final ~1000-fold dilution): 10 mM, cytotoxicity flag (confluency mask): not cytotoxic, agonist: Imiquimod (TLR7) […].
[9] abbreviates: library stock concentration (final ~1000-fold dilution): 10 mM, cytotoxicity flag (confluency mask): cytotoxic (confluency <70% of control), agonist: Imiquimod (TLR7) […].
The mark [10] stands for this setting: library stock concentration (final ~1000-fold dilution): 10 mM, cytotoxicity flag (confluency mask): cytotoxic (confluency <70% of control), agonist: MPLA (TLR4) […].
Where [11] appears, read: library stock concentration (final ~1000-fold dilution): 2 mM, cytotoxicity flag (confluency mask): not cytotoxic, agonist: MPLA (TLR4) […].

For `CCOC(=O)/C=C\C(=O)OCC` (library stock concentration (final ~1000-fold dilution): 10 mM), the “NF-kB SEAP reporter activity” value is 0.819 ± 0.12 in the test with RAW-Dual [1] (agonist: LPS (TLR4) 0.1 ug/mL), 1.2 ± 0.62 in the test with RAW-Dual [1] (setting [4]), 0.786 ± 0.041 with RAW-Dual [1] (setting [5]) and 0.81 ± 0.066 with RAW-Dual [1] (setting [6]).
As for `CCOC(=O)/C=C\C(=O)OCC`, the “NF-kB SEAP reporter activity” value with RAW-Dual [2] (setting [7]) was determined as 1.56 ± 0.87.
With `COC(=O)C1=C(C)NC(C)=C(C(=O)OCCN2CCN(C(c3ccccc3)c3ccccc3)CC2)C1c1cccc([N+](=O)[O-])c1` (stereo not given), the “NF-kB SEAP reporter activity” value in the test on RAW-Dual [2] (setting [8]) is 0.522; in the test on RAW-Dual [2] (setting [7]), 0.869.
As to `COC(=O)C1=C(C)NC(C)=C(C(=O)OCCN2CCN(C(c3ccccc3)c3ccccc3)CC2)C1c1cccc([N+](=O)[O-])c1` (stereo not given) (library stock concentration (final ~1000-fold dilution): 10 mM), the “NF-kB SEAP reporter activity” value is 0.908 with RAW-Dual [1] (agonist: LPS (TLR4) 0.1 ug/mL), 0.387 with RAW-Dual [1] (setting [4]), 0.245 with RAW-Dual [1] (setting [5]) and 0.398 in the test with RAW-Dual [1] (setting [6]).
Turning to `CCOc1nc2cccc(C(=O)OC(C)OC(=O)OC3CCCCC3)c2n1Cc1ccc(-c2ccccc2-c2nnn[nH]2)cc1` (stereo not given) (library stock concentration (final ~1000-fold dilution): 10 mM), the “NF-kB SEAP reporter activity” value with RAW-Dual [3] (agonist: LPS (TLR4) 0.1 ug/mL) worked out at 0.758; with RAW-Dual [3] (setting [4]), 0.425; in the test with RAW-Dual [3] (setting [5]) it was 0.297; in the test with RAW-Dual [3] (setting [6]) it was 0.336.
On to `CCOc1nc2cccc(C(=O)OC(C)OC(=O)OC3CCCCC3)c2n1Cc1ccc(-c2ccccc2-c2nnn[nH]2)cc1` (stereo not given), for which the entries for the “NF-kB SEAP reporter activity” value in the test on RAW-Dual [2] (setting [9]) and in the test with RAW-Dual [2] (setting [10]) were 0.702 and 0.759, respectively.
As for `Cn1cc(CC(N)C(=O)O)c2ccccc21` (stereo not given) (library stock concentration (final ~1000-fold dilution): 2 mM), the “NF-kB SEAP reporter activity” value in the test with RAW-Dual [1] (agonist: LPS (TLR4) 0.1 ug/mL) turned out to be 1.05; with RAW-Dual [1] (setting [4]), 1.22; in the test on RAW-Dual [1] (setting [5]), 1.19; in the test on RAW-Dual [1] (setting [6]), 1.05.
For the compound `Cn1cc(CC(N)C(=O)O)c2ccccc21` (stereo not given), the “NF-kB SEAP reporter activity” value in the test on RAW-Dual [2] (library stock concentration (final ~1000-fold dilution): 2 mM, cytotoxicity flag (confluency mask): not cytotoxic, agonist: Imiquimod (TLR7) […]) was 0.994; with RAW-Dual [2] (setting [11]), 1.05.
Turning to `Cc1ccccc1-c1cc(N2CCN(C)CC2)ncc1N(C)C(=O)C(C)(C)c1cc(C(F)(F)F)cc(C(F)(F)F)c1` (library stock concentration (final ~1000-fold dilution): 2 mM), the “NF-kB SEAP reporter activity” value in the test with RAW-Dual [1] (agonist: LPS (TLR4) 0.1 ug/mL) came to 1.06; in the test on RAW-Dual [1] (setting [4]), 0.951; in the test on RAW-Dual [1] (setting [5]) it was 1.04; with RAW-Dual [1] (setting [6]), 1.03.
Take `Cc1ccccc1-c1cc(N2CCN(C)CC2)ncc1N(C)C(=O)C(C)(C)c1cc(C(F)(F)F)cc(C(F)(F)F)c1`: the “NF-kB SEAP reporter activity” value with RAW-Dual [2] (setting [11]) worked out at 1.06.
With `O=C(OC1CN2CCC1CC2)N1CCc2ccccc2C1c1ccccc1` (stereo not given), in the test with RAW-Dual [2] (setting [10]), the “NF-kB SEAP reporter activity” value amounted to 1.22.
In the case of `O=C(OC1CN2CCC1CC2)N1CCc2ccccc2C1c1ccccc1` (stereo not given) (library stock concentration (final ~1000-fold dilution): 10 mM), the “NF-kB SEAP reporter activity” value with RAW-Dual [3] (agonist: LPS (TLR4) 0.1 ug/mL) amounted to 1.01; with RAW-Dual [3] (setting [4]), 0.565; in the test with RAW-Dual [3] (setting [5]), 0.878; in the test on RAW-Dual [3] (setting [6]) it was 0.943.
For `Cc1c(NC(=O)c2cc(C(N)=O)nc3cc(F)ccc23)c(C(F)(F)F)nn1Cc1ccc(C#N)cc1` (library stock concentration (final ~1000-fold dilution): 10 mM), the “NF-kB SEAP reporter activity” value amounted to 0.766 in the test on RAW-Dual [1] (agonist: LPS (TLR4) 0.1 ug/mL), 0.559 with RAW-Dual [1] (setting [4]), 0.148 with RAW-Dual [1] (setting [5]) and 0.33 in the test on RAW-Dual [1] (setting [6]).
On to `Cc1c(NC(=O)c2cc(C(N)=O)nc3cc(F)ccc23)c(C(F)(F)F)nn1Cc1ccc(C#N)cc1`, for which the “NF-kB SEAP reporter activity” value was 0.491 with RAW-Dual [2] (setting [8]) and 1.25 in the test on RAW-Dual [2] (setting [7]).
On to `CN(C)CCC(c1ccccc1)c1ccccn1.O=C(O)/C=C\C(=O)O` (stereo not given) (library stock concentration (final ~1000-fold dilution): 10 mM), for which the “NF-kB SEAP reporter activity” value in the test on RAW-Dual [1] (agonist: LPS (TLR4) 0.1 ug/mL) stood at 1.02; in the test on RAW-Dual [1] (setting [4]), 0.837; in the test on RAW-Dual [1] (setting [5]) it was 1.08; in the test on RAW-Dual [1] (setting [6]), 1.09.
With `CN(C)CCC(c1ccccc1)c1ccccn1.O=C(O)/C=C\C(=O)O` (stereo not given), the figures for the “NF-kB SEAP reporter activity” value in the test with RAW-Dual [2] (setting [8]) and in the test with RAW-Dual [2] (setting [7]) were 0.937 and 1.06, respectively.
The corresponding values for `Nc1nc(=O)n(C2CSC(CO)O2)cc1F` (stereo not given) are 0.983 and 1.14.
For `Nc1nc(=O)n(C2CSC(CO)O2)cc1F` (stereo not given) (library stock concentration (final ~1000-fold dilution): 10 mM), the “NF-kB SEAP reporter activity” value is 0.99 with RAW-Dual [1] (agonist: LPS (TLR4) 0.1 ug/mL), 1.1 with RAW-Dual [1] (setting [4]), 1.1 in the test on RAW-Dual [1] (setting [5]) and 1.13 with RAW-Dual [1] (setting [6]).
As for `Cc1ccc(NS(=O)(=O)c2ccc3c(c2)C2C=CCC2C(c2ccc(C(=O)O)cc2)N3)cc1C` (stereo not given), the “NF-kB SEAP reporter activity” value in the test on RAW-Dual [2] (setting [8]) came to 0.849; with RAW-Dual [2] (setting [7]) it was 0.997.
For `Cc1ccc(NS(=O)(=O)c2ccc3c(c2)C2C=CCC2C(c2ccc(C(=O)O)cc2)N3)cc1C` (stereo not given) (library stock concentration (final ~1000-fold dilution): 10 mM), the “NF-kB SEAP reporter activity” value in the test on RAW-Dual [1] (agonist: LPS (TLR4) 0.1 ug/mL) amounted to 1.01; in the test on RAW-Dual [1] (setting [4]), 0.883; in the test on RAW-Dual [1] (setting [5]), 0.824; in the test on RAW-Dual [1] (setting [6]), 1.
For `Cc1cc2c(cc1S(N)(=O)=O)S(=O)(=O)CCC2` (library stock concentration (final ~1000-fold dilution): 10 mM), the “NF-kB SEAP reporter activity” value stood at 1.09 in the test on RAW-Dual [1] (agonist: LPS (TLR4) 0.1 ug/mL), 0.957 with RAW-Dual [1] (setting [4]), 0.98 in the test on RAW-Dual [1] (setting [5]) and 1.27 with RAW-Dual [1] (setting [6]).
As for `Cc1cc2c(cc1S(N)(=O)=O)S(=O)(=O)CCC2`, the results for the “NF-kB SEAP reporter activity” value in the test on RAW-Dual [2] (setting [8]) and with RAW-Dual [2] (setting [7]) were 0.914 and 1, respectively.
In the same order, the values of `O=c1cc(-c2ccc(O)cc2)oc2cc(O)c([C@@H]3O[C@H](CO)[C@@H](O)[C@H](O)[C@H]3O)c(O)c12` are 0.939 and 0.988.
Consider `O=c1cc(-c2ccc(O)cc2)oc2cc(O)c([C@@H]3O[C@H](CO)[C@@H](O)[C@H](O)[C@H]3O)c(O)c12` (library stock concentration (final ~1000-fold dilution): 10 mM), for which the “NF-kB SEAP reporter activity” value came to 1.09 in the test with RAW-Dual [1] (agonist: LPS (TLR4) 0.1 ug/mL), 1.06 in the test with RAW-Dual [1] (setting [4]), 1.09 in the test on RAW-Dual [1] (setting [5]) and 1.03 in the test on RAW-Dual [1] (setting [6]).
For the compound `CCn1c2ccccc2c2cc(Nc3ccnc(NCCCN4CCOCC4)n3)ccc21` (library stock concentration (final ~1000-fold dilution): 10 mM), the “NF-kB SEAP reporter activity” value with RAW-Dual [3] (agonist: LPS (TLR4) 0.1 ug/mL) came out at 0.416; in the test with RAW-Dual [3] (setting [4]), 0.202; in the test with RAW-Dual [3] (setting [5]) it was 0.119; with RAW-Dual [3] (setting [6]), 0.152.
Regarding `CCn1c2ccccc2c2cc(Nc3ccnc(NCCCN4CCOCC4)n3)ccc21`, the “NF-kB SEAP reporter activity” value with RAW-Dual [2] (setting [9]) came out at 0.322; in the test on RAW-Dual [2] (setting [10]), 0.535.
